This is an account of results in publication PMC11443517, “A Modular Biosensor Design for Quantitative Measurement of Free Nedd8” (ACS Sensors, 2024).

This assay concerns the target T1, engineered DEN1 (eDEN1) (UniProt Q96LD8 1-212, C163A | histidine at position 102 to arginine | serine at position 160 to …).
T1 construct: deneddylase DEN1 (SENP8) with C163A, H102R and S160D; source: E. coli BL21-CodonPlus (DE3), purified (HisTrap FF, size exclusion)
T1 sequence: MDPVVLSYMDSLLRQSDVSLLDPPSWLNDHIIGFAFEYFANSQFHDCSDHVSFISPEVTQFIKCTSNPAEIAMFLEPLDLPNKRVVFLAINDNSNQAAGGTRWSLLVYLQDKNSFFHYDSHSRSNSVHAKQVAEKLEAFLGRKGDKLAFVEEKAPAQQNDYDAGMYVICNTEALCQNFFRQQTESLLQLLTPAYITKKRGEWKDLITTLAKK
Nature of the assay: fluorescence polarisation; fluorescence anisotropy of 4 nM fluorescein-labelled free or precursor Nedd8 with varying eDEN1; PBS pH 7.4, 0.05% Brij-35, 0.2 mg/mL ovalbumin, 1 mM DTT; excitation 493 nm, emission 556 nm; single-site fit; duplicate. The settings on record: both partners purified. Background: In fluorescence polarisation assays a small probe gives low polarisation when free and higher when bound to something large.

B1: fluorescein-labeled free Nedd8 (T20C) (natural protein)
chain: not shown
modifications: fluorescein-maleimide on cysteine 20
notes: free (unconjugated, processed) Nedd8, without the five C-terminal residues of the precursor; threonine 20 mutated to cysteine for labelling; also called free Nedd8 labeled with fluorescein
For B1, the Kd was 6.3 nM.

B2: fluorescein-labeled precursor Nedd8 (T20C) (natural protein)
chain: not shown
modifications: fluorescein-maleimide on cysteine 20
notes: precursor Nedd8: the endogenous form with an additional five amino acids extending from the C-terminus of free Nedd8; threonine 20 mutated to cysteine for labelling; Cloned in pET28a; also called precursor Nedd8 labeled with fluorescein
As to B2, the Kd is over 2000 nM.

Usually Kd stands for the free concentration of one partner at which half of the binding sites on the other are occupied at equilibrium, for simple one-to-one binding.
